From article PMC6212790 come the findings set out here.

Some of the results follow. At the low end of the ranking, values are background and their order means little.

This test has as its target T1, GST-Rok-C97-191 (UniProt O34857).
T1 sequence: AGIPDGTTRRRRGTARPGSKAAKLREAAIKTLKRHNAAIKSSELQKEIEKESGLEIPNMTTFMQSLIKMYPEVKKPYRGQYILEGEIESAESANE
Put plainly: protein binding microarray.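 Also: rank score from −0.5 (least bound) to 0.5 (best bound).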 The settings on record: Rok is a gene silencer of Bacillus subtilis; high values mean tight binding; most listed sequences are background and not binding sites; double strand, one strand shown.
CATCTCAC registered a binding signal of -0.153 E-score. As for ATCGTGTA, the figure is 0.198 E-score; as for AGTTTCTA, 0.389 E-score.

The sequence GGGACTAC yielded a binding signal of -0.0206 E-score.

Sequence GAGCTTGC had a binding signal of -0.0383 E-score. As for AATAACTA, the figure is 0.308 E-score; as for CTTAGTAC, 0.221 E-score.

In turn, AGCACCTC displayed a binding signal of -0.174 E-score.

Regarding AGCGGTAA, the binding signal worked out at 0.0531 E-score.

In turn, ATGTTAGG displayed a binding signal of -0.0286 E-score. Then ACATAAGA, with 0.0818 E-score; and AATCTCCT, with 0.175 E-score; and GAGGGAGA, with -0.137 E-score. As for GACCAAAA, the binding signal was -0.0726 E-score.

AACACAAG displayed a binding signal of -0.0133 E-score. Then TAGATCTA, with 0.298 E-score; and AGGGCAGA, with -0.214 E-score; and CAAGCCAG, with -0.34 E-score. As for CATACCCG, the figure is -0.13 E-score; as for GTATTGAC, 0.246 E-score. Turning to CCTTGCAG, the binding signal is -0.179 E-score. As for ACGTCAAA, the figure is -0.0839 E-score; as for CCGTACAC, -0.0666 E-score; as for CAAGTGAC, -0.0247 E-score. GGCACGCA had a binding signal of -0.238 E-score.

Sequence AAGGACCT returned a binding signal of -0.243 E-score. ATCACGGG came in with a binding signal of -0.127 E-score. Then ACTCTGCT, with -0.155 E-score. Then CCAGCGAC, with 0.0277 E-score; and GCGCGGCA, with -0.145 E-score; and CTCCATAA, with -0.175 E-score. TGTTTGAA showed a binding signal of -0.0525 E-score. In turn, ATCGCTGG displayed a binding signal of -0.21 E-score.

As to GCCGAAGC, the binding signal is -0.177 E-score. As for CCCCGGAC, the figure is -0.242 E-score; as for GAAAAGTA, 0.308 E-score; as for AAATGGAA, -0.144 E-score. Then AGTTGACG, with -0.0683 E-score; and AAGATATG, with 0.117 E-score; and ACGCAACA, with 0.0565 E-score.

Regarding ACCTAAAT, the binding signal is 0.179 E-score.

For the sequence AAAACCAG, the binding signal is -0.119 E-score. As for GTGACGAA, the binding signal is -0.0201 E-score. Then AGCCTCTC, with -0.126 E-score.

GAAGGCTA gave a binding signal of -0.0559 E-score. Then AACAGTAA, with 0.285 E-score. As for CTTAGTCA, the figure is 0.135 E-score. For the sequence CCACCTTC, the binding signal was -0.262 E-score. As for TGTGAAAA, the figure is 0.102 E-score; as for CGCATACA, 0.138 E-score. Then CTGCCACA, with -0.24 E-score; and AGCTTCGC, with -0.034 E-score; and GTTAAGTA, with 0.215 E-score. Then AAACCGAT, with 0.0643 E-score; and ATTGCCGC, with -0.0476 E-score. In the case of AATTATAT, the binding signal stood at 0.398 E-score. Then ATACTGAT, with 0.166 E-score; and AAATGACC, with 0.0778 E-score. Then AGCGATGC, with -0.0179 E-score; and GAAGAGAC, with 0.0606 E-score; and ACGCGTCA, with -0.0653 E-score. As to CCGTGAAG, the binding signal is -0.225 E-score. As for GGGACGGA, the figure is -0.301 E-score; as for ATAGTATG, 0.316 E-score; as for CACTATTA, 0.202 E-score. Then GCCTTACC, with -0.221 E-score; and GTCTTGGA, with 0.0254 E-score; and GTATAGAC, with 0.0493 E-score. As for ATGCACTA, the figure is -0.185 E-score; as for AGAAATAT, 0.346 E-score. For ACACCCTA, the binding signal stood at 0.118 E-score.

Sequence ACCCACCA came in with a binding signal of -0.187 E-score. As for AACGTTGA, the figure is 0.0335 E-score; as for GAAAACGC, -0.192 E-score.

For the sequence GTAATGTA, the binding signal was determined as 0.339 E-score. Then CAGAAGTA, with 0.207 E-score; and CCGATAAA, with 0.111 E-score. As for ACGGATCG, the figure is 0.126 E-score.

On to AATGAGTA, for which the binding signal was 0.142 E-score. As to ATGTATCG, the binding signal was 0.249 E-score.

In turn, AGGCGGCA gave a binding signal of -0.32 E-score. As for ATCCTTCC, the figure is -0.0429 E-score; as for GTGAGGAA, -0.0466 E-score. As for TCCCTCAA, the figure is -0.0531 E-score; as for GCAGTCTA, 0.0117 E-score; as for AGCGAGTC, -0.212 E-score. As for AGGAACCA, the figure is 0.128 E-score; as for CATCTGCC, -0.245 E-score; as for ACGCATGG, -0.0471 E-score. Consider CAGTTGGA, for which the binding signal is -0.0642 E-score. GGTGGTTA gave a binding signal of -0.216 E-score.

TATAATGA: the binding signal was found to be 0.205 E-score. As for CACACTCG, the figure is -0.00706 E-score; as for GCCCTAGA, -0.198 E-score. Then ATTGGCTA, with 0.00334 E-score.

Regarding ATTACGCG, the binding signal was -0.0188 E-score. As for AAGTACCT, the figure is 0.312 E-score. Consider ACAAGTCG, for which the binding signal is -0.111 E-score. Then GCATTAAC, with 0.00553 E-score. Then CGCCTCGC, with -0.277 E-score; and AGAATCGC, with 0.183 E-score; and GGGCCACC, with -0.312 E-score. As for AACAGTTC, the figure is 0.116 E-score; as for GTCTACTA, 0.29 E-score. On to GGATCAAC, for which the binding signal is -0.0565 E-score. Take ACCTTACT: the binding signal was 0.0878 E-score.

ACGACCCA showed a binding signal of -0.0447 E-score. Then GACGTTTA, with -0.0493 E-score. For ACTCGAAT, the binding signal is -0.0295 E-score. As to GAACAATC, the binding signal is -0.0282 E-score.

TAAGCATA yielded a binding signal of 0.00925 E-score. As for AGTTAGCA, the figure is 0.218 E-score. In turn, CTGTCTAA had a binding signal of -0.0901 E-score. Then CCGAAAGA, with -0.158 E-score; and ATGAATAA, with 0.219 E-score; and CCAATACC, with 0.0804 E-score. As for CTGATAGA, the figure is 0.0972 E-score; as for AAAGTACA, 0.366 E-score; as for AGCGCTCA, 0.00935 E-score.

ATGCAACA returned a binding signal of -0.0342 E-score. Then CTCGAGTC, with -0.205 E-score; and GAGCTTGA, with -0.0815 E-score; and ATTTTTCC, with 0.122 E-score.

CCCGCCGG came in with a binding signal of -0.235 E-score. As for CACTTTGA, the figure is -0.0655 E-score; as for TAAACTCA, 0.238 E-score.

ATAACTAT returned a binding signal of 0.383 E-score. AAGCTCCC returned a binding signal of -0.234 E-score. On to CCCTCCAA, for which the binding signal is -0.358 E-score. Regarding ACACTCAA, the binding signal was -0.00816 E-score. In turn, CAACGCCA had a binding signal of 0.0129 E-score. Then CAGGTCTC, with -0.144 E-score.

In turn, AACGGGCA came in with a binding signal of -0.153 E-score. As for GCACTTAC, the figure is -0.155 E-score. ACCGACCG showed a binding signal of -0.159 E-score. As for AGATGGCC, the figure is -0.153 E-score; as for TATAAACA, 0.294 E-score; as for AGTTTAGC, 0.199 E-score. Then GCATCCGC, with -0.147 E-score; and CGTGAACA, with -0.00164 E-score; and CCCGAAGG, with -0.291 E-score. Then AATGTCAT, with 0.178 E-score; and ATCCATTC, with -0.112 E-score; and ATGATCTA, with 0.25 E-score. As for GATTCGAA, the binding signal was -0.0962 E-score. As for AAATGCCA, the figure is 0.168 E-score; as for CCCCCGAA, -0.297 E-score. Then CCTACCGA, with 0.152 E-score. Then AGTGTACA, with 0.141 E-score; and GACTGTTA, with -0.31 E-score; and GAGGCAAA, with -0.172 E-score. Turning to AACCGCGG, the binding signal is -0.114 E-score. Then AGCCGCAG, with -0.314 E-score. As for CCGGTCCA, the figure is -0.171 E-score. On to TCAACTAA, for which the binding signal stood at 0.0958 E-score.

On to ATTATTGC, for which the binding signal amounted to 0.0201 E-score.

For ACGTAGTC, the binding signal was -0.268 E-score.

ACGACGAC showed a binding signal of -0.0322 E-score.

For AGACAAGG, the binding signal was -0.0106 E-score. Take GCGGCTAC: the binding signal is -0.0818 E-score. As for ACCTACAC, the figure is 0.0632 E-score. Then ATATTTGC, with 0.295 E-score; and AGACCCGC, with -0.204 E-score. As for AACTACCT, the figure is 0.412 E-score; as for ACCAATCA, -0.132 E-score; as for CAGCTGGG, -0.194 E-score. In the case of CTCTAAAC, the binding signal stood at 0.13 E-score.

Regarding AGGCCTTC, the binding signal was -0.169 E-score. As for CTCCATGC, the figure is -0.0936 E-score; as for GCGTCAAA, 0.0446 E-score. AAGGAACC: the binding signal was -0.0467 E-score. AAGACGAA displayed a binding signal of 0.0188 E-score.
